# Source: the supplement of paper PMC8728848
# Some of the results follow.
# B1: UDA (Urtica dioica), P11218 (protein)
# chain: MMMRFLSAVVIMSSAMAVGLVSAQRCGSQGGGGTCPALWCCSIWGWCGDSEPYCGRTCENKCWSGERSDHRCGAAVGNPPCGQDRCCSVHGWCGGGNDYCSGSKCQYRCSSSVRGPRVALSGNSTANSIGNVVVTEPLFDQMFSHRKDCPSQGFYSYHSFLVAAESFPAFGTIGDVATRKREVAAFLAHISQATSGERSDVENPHAWGLCHINTTTVTENDFCTSSDWPCAAGKKYSPRGPIQLTHNFNYGLAGQAIGEDLIQNPDLVEKDPIISFKTALWFWMSQHDNKPSCHDIVLNANSAANRIPNKGVIGNIISRAFGHDDFAVRSSSIGFYKRYCDMLGVSYGHDLKYWFDNTPSSEFQRIQMRVAA
# Legend:
# Experiment in all cases: glycan array binding signal (z-score within array); higher = stronger binding
# Conditions in all cases: glycan notation: IUPAC condensed, linker removed
# [1] = biological target: GlcNAc(a1-4)Gal(b1-4)GlcNAc(b1-3)Gal(b1-4)GlcNAc(b1-3)Gal(b1-4)GlcNAc
# Method in brief: (§1)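 Glycan array data were curated from 3228 arrays in the Consortium for Functional Glycomics database and kept only where the protein sequence was available. Glycan names were converted to IUPAC-condensed notation, and columns mapping to the same glycan were averaged. The binding signal is a within-array Z-score, averaged across arrays of the same protein sequence at different concentrations or buffers and across linkers. Negative Z-scores can be read as non-binding.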
# [2] = biological target: GlcNAc(a1-4)Gal(b1-4)GlcNAc(b1-3)Gal(b1-4)[Fuc(a1-3)]GlcNAc(b1-3)Gal(b1-4)[Fuc(a1-3)]GlcNAc
# Method in brief: as §1
# [3] = biological target: GlcNAc(a1-6)Gal(b1-4)GlcNAc
# Method in brief: as §1
# [4] = biological target: GlcNAc(b1-2)Gal(b1-3)GalNAc
# Method in brief: as §1
# [5] = biological target: GlcNAc(b1-2)Man(a1-3)[GlcNAc(b1-2)Man(a1-6)]Man(b1-4)GlcNAc(b1-4)GlcNAc
# Method in brief: as §1
# [6] = biological target: GlcNAc(b1-2)Man(a1-3)[GlcNAc(b1-2)Man(a1-6)]Man(b1-4)GlcNAc(b1-4)[Fuc(a1-6)]GlcNAc
# Method in brief: as §1
# [7] = biological target: GlcNAc(b1-2)Man(a1-3)[GlcNAc(b1-4)][GlcNAc(b1-2)Man(a1-6)]Man(b1-4)GlcNAc(b1-4)GlcNAc
# Method in brief: as §1
# [8] = biological target: GlcNAc(b1-2)Man(a1-3)[GlcNAc(b1-4)][GlcNAc(b1-2)Man(a1-6)]Man(b1-4)GlcNAc(b1-4)[Fuc(a1-6)]GlcNAc
# Method in brief: as §1
# [9] = biological target: GlcNAc(b1-2)[GlcNAc(b1-4)]Man(a1-3)[GlcNAc(b1-2)Man(a1-6)]Man(b1-4)GlcNAc(b1-4)GlcNAc
# Method in brief: as §1
# [10] = biological target: GlcNAc(b1-2)[GlcNAc(b1-4)]Man(a1-3)[GlcNAc(b1-4)][GlcNAc(b1-2)Man(a1-6)]Man(b1-4)GlcNAc(b1-4)GlcNAc
# Method in brief: as §1
# [11] = biological target: GlcNAc(b1-2)[GlcNAc(b1-4)]Man(a1-3)[GlcNAc(b1-4)][GlcNAc(b1-2)[GlcNAc(b1-6)]Man(a1-6)]Man(b1-4)GlcNAc(b1-4)GlcNAc
# Method in brief: as §1
# [12] = biological target: GlcNAc(b1-2)[GlcNAc(b1-4)]Man(a1-3)[GlcNAc(b1-4)][GlcNAc(b1-2)[GlcNAc(b1-6)]Man(a1-6)]Man(b1-4)GlcNAc(b1-4)[Fuc(a1-6)]GlcNAc
# Method in brief: as §1
# [13] = biological target: GlcNAc(b1-2)[GlcNAc(b1-6)]Man(a1-6)[GlcNAc(b1-2)Man(a1-3)]Man(b1-4)GlcNAc(b1-4)GlcNAc
# Method in brief: as §1
# [14] = biological target: GlcNAc(b1-2)[GlcNAc(b1-6)]Man(a1-6)[GlcNAc(b1-2)Man(a1-3)]Man(b1-4)GlcNAc(b1-4)[Fuc(a1-6)]GlcNAc
# Method in brief: as §1
# [15] = biological target: GlcNAc(b1-2)[GlcNAc(b1-6)]Man(a1-6)[GlcNAc(b1-4)][GlcNAc(b1-2)Man(a1-3)]Man(b1-4)GlcNAc(b1-4)GlcNAc
# Method in brief: as §1
# GlcNAc(b1-3)Fuc = biological target: GlcNAc(b1-3)Fuc
# Method in brief: as §1
# GlcNAc(b1-3)Gal = biological target: GlcNAc(b1-3)Gal
# Method in brief: as §1
# [16] = biological target: GlcNAc(b1-3)Gal(b1-3)GalNAc
# Method in brief: as §1
# GlcNAc(b1-3)Gal(b1-4)Glc = biological target: GlcNAc(b1-3)Gal(b1-4)Glc
# Method in brief: as §1
# [17] = biological target: GlcNAc(b1-3)Gal(b1-4)GlcNAc
# Method in brief: as §1
# [18] = biological target: GlcNAc(b1-3)Gal(b1-4)GlcNAc(b1-2)Man(a1-3)[GlcNAc(b1-3)Gal(b1-4)GlcNAc(b1-2)Man(a1-6)]Man(b1-4)GlcNAc(b1-4)GlcNAc
# Method in brief: as §1
# [19] = biological target: GlcNAc(b1-3)Gal(b1-4)GlcNAc(b1-2)Man(a1-3)[GlcNAc(b1-3)Gal(b1-4)GlcNAc(b1-2)Man(a1-6)]Man(b1-4)GlcNAc(b1-4)[Fuc(a1-6)]GlcNAc
# Method in brief: as §1
binder,measurement,setting,value
B1,glycan array binding signal (z-score),[1],1.36
same,glycan array binding signal (z-score),[2],-0.167
same,glycan array binding signal (z-score),[3],-0.176
same,glycan array binding signal (z-score),[4],-0.192
same,glycan array binding signal (z-score),[5],-0.156
same,glycan array binding signal (z-score),[6],-0.168
same,glycan array binding signal (z-score),[7],-0.162
same,glycan array binding signal (z-score),[8],-0.168
same,glycan array binding signal (z-score),[9],0.083
same,glycan array binding signal (z-score),[10],-0.172
same,glycan array binding signal (z-score),[11],-0.175
same,glycan array binding signal (z-score),[12],-0.184
same,glycan array binding signal (z-score),[13],-0.165
same,glycan array binding signal (z-score),[14],-0.162
same,glycan array binding signal (z-score),[15],-0.179
same,glycan array binding signal (z-score),GlcNAc(b1-3)Fuc,-0.176
same,glycan array binding signal (z-score),GlcNAc(b1-3)Gal,-0.183
same,glycan array binding signal (z-score),[16],-0.181
same,glycan array binding signal (z-score),GlcNAc(b1-3)Gal(b1-4)Glc,-0.191
same,glycan array binding signal (z-score),[17],-0.111
same,glycan array binding signal (z-score),[18],-0.178
same,glycan array binding signal (z-score),[19],-0.134
